# The IC50 comes from the fitted curve, where viability falls to half of the control; a limit (>, <) means that the fit lies beyond the doses tested. AUC sums up the same curve from the lowest dose to the 256-fold higher top dose; values near 1 show little effect. For part of these data: Where the top dose is marked as inferred, it was calculated from the reported fits. For part of these data: An entry number marks a drug with two screens in the source, which often give different values.
# Legend:
# Experiment in all cases: Viability of human cancer cell lines after 72 h of drug (GDSC screen)
# TW-37 = compound: CC(C)c1ccccc1Cc1cc(C(=O)Nc2ccc(S(=O)(=O)c3ccccc3C(C)(C)C)cc2)c(O)c(O)c1O [TW-37]; details: top dose 5 µM
# Description: (§1)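 Human cancer cell lines in 384-well plates, medium with 10% serum, drug for 72 h over a 256-fold dose range (nine 2-fold or five 4-fold steps up to the top dose). Adherent lines were fixed and stained with the nucleic acid dye Syto60, suspension lines read with resazurin; signal relative to control wells, capped at 0 and 100%. One two-parameter sigmoid per drug and line, fitted in a mixed model over all curves with the slope shared within a line.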
# T0901317 = compound: O=S(=O)(c1ccccc1)N(CC(F)(F)F)c1ccc(C(O)(C(F)(F)F)C(F)(F)F)cc1 [T0901317]; details: top dose 10.24 µM; top dose inferred
# Description: as §1
# Nilotinib = compound: Cc1cn(-c2cc(NC(=O)c3ccc(C)c(Nc4nccc(-c5cccnc5)n4)c3)cc(C(F)(F)F)c2)cn1 [Nilotinib]; details: top dose 2 µM
# Description: as §1
# MP470 = compound: S=C(NCc1ccc2c(c1)OCO2)N1CCN(c2ncnc3c2oc2ccccc23)CC1 [MP470]; details: top dose 20 µM; top dose inferred
# Description: as §1
# KIN001-270 = compound: Cc1ccc(Nc2cc(-c3cccc(N4C(=O)c5ccccc5C4=O)c3)ncn2)cc1NS(C)(=O)=O [KIN001-270]; details: top dose 20 µM; top dose inferred
# Description: as §1
# Bicalutamide = compound: CC(O)(CS(=O)(=O)c1ccc(F)cc1)C(=O)Nc1ccc(C#N)c(C(F)(F)F)c1 [Bicalutamide]; details: top dose 10 µM; screen: GDSC drug entry 1502; top dose inferred
# Description: as §1
cell line,measurement,setting,value
"CADO-ES1 (Ewing sarcoma, suspension)",AUC,TW-37,0.821
same,IC50,TW-37,2.95 µM
same,AUC,T0901317,0.972
same,IC50,T0901317,> 10.2 µM
same,AUC,Nilotinib,0.981
same,IC50,Nilotinib,> 2 µM
same,AUC,MP470,0.883
same,IC50,MP470,> 20 µM
same,AUC,KIN001-270,0.962
same,IC50,KIN001-270,> 20 µM
same,AUC,Bicalutamide,0.986
same,IC50,Bicalutamide,> 10 µM
"COR-L321 (lung, suspension)",AUC,TW-37,0.863
same,IC50,TW-37,4.31 µM
same,AUC,T0901317,0.979
same,IC50,T0901317,> 10.2 µM
same,AUC,Nilotinib,0.983
same,IC50,Nilotinib,> 2 µM
same,AUC,MP470,0.945
same,IC50,MP470,> 20 µM
same,AUC,KIN001-270,0.973
same,IC50,KIN001-270,> 20 µM
same,AUC,Bicalutamide,0.988
same,IC50,Bicalutamide,> 10 µM
"D-423MG (glioma, adherent)",AUC,TW-37,0.585
same,IC50,TW-37,0.562 µM
same,AUC,T0901317,0.913
same,IC50,T0901317,> 10.2 µM
same,AUC,Nilotinib,0.907
same,IC50,Nilotinib,> 2 µM
same,AUC,MP470,0.751
same,IC50,MP470,7.92 µM
same,AUC,KIN001-270,0.884
same,IC50,KIN001-270,> 20 µM
same,AUC,Bicalutamide,0.972
same,IC50,Bicalutamide,> 10 µM
"D-566MG (glioma, adherent)",AUC,TW-37,0.347
same,IC50,TW-37,0.118 µM
same,AUC,T0901317,0.958
same,IC50,T0901317,> 10.2 µM
same,AUC,Nilotinib,0.948
same,IC50,Nilotinib,> 2 µM
same,AUC,MP470,0.966
same,IC50,MP470,> 20 µM
same,AUC,KIN001-270,0.948
same,IC50,KIN001-270,> 20 µM
"DOV13 (ovary, adherent)",AUC,TW-37,0.535
same,IC50,TW-37,0.395 µM
same,AUC,T0901317,0.969
same,IC50,T0901317,> 10.2 µM
same,AUC,Nilotinib,0.984
same,IC50,Nilotinib,> 2 µM
same,AUC,MP470,0.967
same,IC50,MP470,> 20 µM
same,AUC,KIN001-270,0.967
same,IC50,KIN001-270,> 20 µM
same,AUC,Bicalutamide,0.943
same,IC50,Bicalutamide,> 10 µM
"EMC-BAC-1 (lung adenocarcinoma, adherent)",AUC,TW-37,0.813
same,IC50,TW-37,3.17 µM
same,AUC,T0901317,0.958
same,IC50,T0901317,> 10.2 µM
same,AUC,Nilotinib,0.958
same,IC50,Nilotinib,> 2 µM
same,AUC,MP470,0.929
same,IC50,MP470,> 20 µM
same,AUC,KIN001-270,0.961
same,IC50,KIN001-270,> 20 µM
same,AUC,Bicalutamide,0.982
same,IC50,Bicalutamide,> 10 µM
"ESO26 (oesophagus, adherent)",AUC,TW-37,0.698
same,IC50,TW-37,1.09 µM
same,AUC,T0901317,0.987
same,IC50,T0901317,> 10.2 µM
same,AUC,Nilotinib,0.989
same,IC50,Nilotinib,> 2 µM
same,AUC,MP470,0.934
same,IC50,MP470,> 20 µM
same,AUC,KIN001-270,0.987
same,IC50,KIN001-270,> 20 µM
same,AUC,Bicalutamide,0.988
same,IC50,Bicalutamide,> 10 µM
"ESO51 (oesophagus, semi-adherent)",AUC,T0901317,0.952
same,IC50,T0901317,> 10.2 µM
same,AUC,Nilotinib,0.843
same,IC50,Nilotinib,> 2 µM
same,AUC,MP470,0.894
same,IC50,MP470,> 20 µM
same,AUC,KIN001-270,0.957
same,IC50,KIN001-270,> 20 µM
same,AUC,Bicalutamide,0.964
same,IC50,Bicalutamide,> 10 µM
"FLO-1 (oesophagus, adherent)",AUC,TW-37,0.543
same,IC50,TW-37,0.431 µM
same,AUC,T0901317,0.969
same,IC50,T0901317,> 10.2 µM
same,AUC,Nilotinib,0.974
same,IC50,Nilotinib,> 2 µM
same,AUC,MP470,0.926
same,IC50,MP470,> 20 µM
same,AUC,KIN001-270,0.948
same,IC50,KIN001-270,> 20 µM
same,AUC,Bicalutamide,0.945
same,IC50,Bicalutamide,> 10 µM
"Hey (ovary, adherent)",AUC,TW-37,0.482
same,IC50,TW-37,0.28 µM
same,AUC,T0901317,0.978
same,IC50,T0901317,> 10.2 µM
same,AUC,Nilotinib,0.908
same,IC50,Nilotinib,> 2 µM
same,AUC,MP470,0.368
same,IC50,MP470,0.554 µM
same,AUC,KIN001-270,0.978
same,IC50,KIN001-270,> 20 µM
same,AUC,Bicalutamide,0.971
same,IC50,Bicalutamide,> 10 µM
"Hs746T (stomach, adherent)",AUC,TW-37,0.666
same,IC50,TW-37,1.07 µM
same,AUC,T0901317,0.364
same,IC50,T0901317,0.236 µM
same,AUC,Nilotinib,0.955
same,IC50,Nilotinib,> 2 µM
same,AUC,MP470,0.122
same,IC50,MP470,< 0.0781 µM
same,AUC,KIN001-270,0.919
same,IC50,KIN001-270,> 20 µM
same,AUC,Bicalutamide,0.954
same,IC50,Bicalutamide,> 10 µM
"KMS-11 (myeloma, suspension)",AUC,TW-37,0.647
same,IC50,TW-37,0.744 µM
same,AUC,T0901317,0.97
same,IC50,T0901317,> 10.2 µM
same,AUC,Nilotinib,0.99
same,IC50,Nilotinib,> 2 µM
same,AUC,MP470,0.977
same,IC50,MP470,> 20 µM
same,AUC,KIN001-270,0.938
same,IC50,KIN001-270,> 20 µM
same,AUC,Bicalutamide,0.986
same,IC50,Bicalutamide,> 10 µM
"KYAE-1 (oesophagus, suspension)",AUC,TW-37,0.859
same,IC50,TW-37,4.88 µM
same,AUC,T0901317,0.958
same,IC50,T0901317,> 10.2 µM
same,AUC,Nilotinib,0.968
same,IC50,Nilotinib,> 2 µM
same,AUC,MP470,0.89
same,IC50,MP470,> 20 µM
same,AUC,KIN001-270,0.967
same,IC50,KIN001-270,> 20 µM
same,AUC,Bicalutamide,0.968
same,IC50,Bicalutamide,> 10 µM
"MKN7 (stomach, adherent)",AUC,TW-37,0.849
same,IC50,TW-37,> 5 µM
same,AUC,Nilotinib,0.975
same,IC50,Nilotinib,> 2 µM
same,AUC,Bicalutamide,0.981
same,IC50,Bicalutamide,> 10 µM
"MOLM-16 (acute myeloid leukaemia, suspension)",AUC,TW-37,0.45
same,IC50,TW-37,0.232 µM
same,AUC,Nilotinib,0.93
same,IC50,Nilotinib,> 2 µM
same,AUC,Bicalutamide,0.977
same,IC50,Bicalutamide,> 10 µM
"MOLT-13 (T-cell lymphoblastic leukaemia, suspension)",AUC,TW-37,0.616
same,IC50,TW-37,0.623 µM
same,AUC,Nilotinib,0.982
same,IC50,Nilotinib,> 2 µM
same,AUC,MP470,0.732
same,IC50,MP470,5.17 µM
same,AUC,KIN001-270,0.973
same,IC50,KIN001-270,> 20 µM
same,AUC,Bicalutamide,0.957
same,IC50,Bicalutamide,> 10 µM
"MOLT-16 (T-cell lymphoblastic leukaemia, suspension)",AUC,TW-37,0.387
same,IC50,TW-37,0.163 µM
same,AUC,Nilotinib,0.966
same,IC50,Nilotinib,> 2 µM
same,AUC,Bicalutamide,0.974
same,IC50,Bicalutamide,> 10 µM
"NCC010 (kidney, adherent)",AUC,TW-37,0.376
same,IC50,TW-37,0.138 µM
same,AUC,Nilotinib,0.986
same,IC50,Nilotinib,> 2 µM
same,AUC,Bicalutamide,0.954
same,IC50,Bicalutamide,> 10 µM
"NCC021 (kidney, adherent)",AUC,TW-37,0.731
same,IC50,TW-37,1.61 µM
same,AUC,T0901317,0.978
same,IC50,T0901317,> 10.2 µM
same,AUC,Nilotinib,0.985
same,IC50,Nilotinib,> 2 µM
same,AUC,MP470,0.909
same,IC50,MP470,> 20 µM
same,AUC,KIN001-270,0.91
same,IC50,KIN001-270,> 20 µM
same,AUC,Bicalutamide,0.983
same,IC50,Bicalutamide,> 10 µM
"NCI-H146 (small cell lung carcinoma, suspension)",AUC,TW-37,0.617
same,IC50,TW-37,0.609 µM
same,AUC,Nilotinib,0.949
same,IC50,Nilotinib,> 2 µM
same,AUC,Bicalutamide,0.988
same,IC50,Bicalutamide,> 10 µM
"NCI-H508 (large intestine, semi-adherent)",AUC,TW-37,0.934
same,IC50,TW-37,> 5 µM
same,AUC,Nilotinib,0.975
same,IC50,Nilotinib,> 2 µM
same,AUC,Bicalutamide,0.972
same,IC50,Bicalutamide,> 10 µM
"NCI-H630 (large intestine, adherent)",AUC,TW-37,0.579
same,IC50,TW-37,0.522 µM
same,AUC,T0901317,0.974
same,IC50,T0901317,> 10.2 µM
same,AUC,Nilotinib,0.948
same,IC50,Nilotinib,> 2 µM
same,AUC,MP470,0.959
same,IC50,MP470,> 20 µM
same,AUC,KIN001-270,0.984
same,IC50,KIN001-270,> 20 µM
same,AUC,Bicalutamide,0.987
same,IC50,Bicalutamide,> 10 µM
"NCI-H835 (lung carcinoid, suspension)",AUC,TW-37,0.667
same,IC50,TW-37,0.89 µM
same,AUC,Nilotinib,0.97
same,IC50,Nilotinib,> 2 µM
same,AUC,Bicalutamide,0.973
same,IC50,Bicalutamide,> 10 µM
"NCI-H929 (myeloma, suspension)",AUC,TW-37,0.667
same,IC50,TW-37,0.84 µM
same,AUC,Nilotinib,0.893
same,IC50,Nilotinib,1.76 µM
same,AUC,Bicalutamide,0.984
same,IC50,Bicalutamide,> 10 µM
"NCI-H1341 (small cell lung carcinoma, suspension)",AUC,TW-37,0.571
same,IC50,TW-37,0.474 µM
same,AUC,Nilotinib,0.992
same,IC50,Nilotinib,> 2 µM
same,AUC,Bicalutamide,0.984
same,IC50,Bicalutamide,> 10 µM
"NCI-N87 (stomach, adherent)",AUC,TW-37,0.771
same,IC50,TW-37,2.83 µM
same,AUC,Nilotinib,0.93
same,IC50,Nilotinib,> 2 µM
same,AUC,Bicalutamide,0.973
same,IC50,Bicalutamide,> 10 µM

# Reference: the supplement of paper PMC4967469
